According to PubChem BioAssay AID1508623 (National Center for Advancing Translational Sciences (NCATS), 2021):
In all, about 48,000 compounds went through this assay and about 450 (0.94%) were called active. Not shown: some 19% with an inconclusive outcome. The call rests on the fitted dose curve; in most records, active means well fitted inhibition curve with a large enough effect; inconclusive means small, poorly fitted or top-dose-only effect; inactive means no such curve, though single readings can be large or run the other way. This is one part of the list.

Assay: Primary qHTS for Identification of Small Molecule Inhibitors of Huntingtin Promoter Activity; further: nearly all actives have a fitted effect of over 50% in size
Conditions: HEK293 HTT promoter firefly luciferase reporter (activity 0% = vehicle and -100% = no light), 24 h; series mostly up to 57.5 µM; activity change, negative = inhibition: at the top concentration
Description: Assay Provider: Russell L. Margolis M.D.
Department Neurology, Johns Hopkins University School of Medicine, Baltimore, MD
Huntington's Disease (HD) is a neurodegenerative disorder caused by a CAG repeat expansion in exon 1 of huntingtin (HTT). While there are currently no disease-modifying treatments for HD, recent efforts have focused on development of nucleotide-based therapeutics to lower HTT expression. As an alternative to siRNA or oligonucleotide methods, we hypothesized that suppression of HTT expression might be accomplished by small molecules that either (1) directly decrease HTT expression by suppressing HTT promoter activity or (2) indirectly decrease HTT expression by increasing the promoter activity of HTT-AS, the gene antisense to HTT that appears to inhibit expression of HTT.
We developed and employed a high throughput screen for modifiers of HTT and HTT-AS promoter activity using luminescent reporter HEK293 cells; of the 52,041 compounds tested, we identified 898 replicable hits. We used a rigorous stepwise approach to assess compound toxicity and the capacity of the compounds to specifically lower huntingtin protein in 5 different cell lines, including HEK293 cells, HD lymphoblastoid cells, mouse primary neurons, HD iPSCs differentiated into cortical-like neurons, and HD hESCs. We found no compounds which were able to lower huntingtin without lowering cell viability in all assays, though the potential efficacy of a few compounds at non-toxic doses could not be excluded.
SEQUENCE No. (1, 2, 3, etc.); […] (e.g., Cells, Incubation, Reagent, etc.); VALUE and DESCRIPTION.
1; Reagent; 4 uL; 2,500 Hek293 luciferase reporter cells per wells
3; Compound; 23 nL; Control inhibitor / compound library
5; Reagent; 2.5 uL; Firefly Luc reagent; Dual-Glo Luciferase Reporter Assay System (Promega)
6; Time; 10 min; room temperature incubation
7; Detection; Luminescence; FLuc
NOTES (numbers refer to sequence above)
1; High-throughput screening, measuring luminescence from a Hek293 luciferase reporter, was performed in 1,536 well white-walled tissue-culture treated plates. 2,500 cells were plated in 4 µL of Opti-MEM per well using a Multidrop Combi Reagent Dispenser (ThermoFisher).
2; Assay plates were cultured for 24 hours.
3; Control inhibitor (PTC124; final concentration of 50 uM) and compound library (at final concentrations of 460 nM - 57.5 uM) were added to the assay plate using the Kalypsis Pintool Robotic System equipped with 1536 pinheads.
4; Cells were then incubated for 24 hours at 37 degrees C prior to luminescence measurements.
5; In all cases, luminescence was measured using the Dual-Glo Luciferase Reporter Assay System (Promega) following the manufacturer's instructions.
6; Room temperature incubation.
7; Luminescence signal was obtained using the PerkinElmer ViewLux plate reader. Results were normalized to vehicle control (0% activity) and zero RLU (-100% activity).

Activity change, negative = inhibition, inactive:
Cc1ccc(C(=O)COC(=O)CCC(=O)Nc2ccc(Oc3ccccc3)cc2)cc1C -11.2%
COc1ccc(-n2c(SCc3ccccc3F)nc3c([nH]c4ccccc43)c2=O)cc1 -13.5%
Cc1ccccc1CSc1nnc2[nH]c(=O)cc(C)n12 -10.9%
O=C(Cn1cc(S(=O)(=O)Cc2ccc(F)cc2)c2ccccc21)NCc1ccccc1Cl -14.1%
CCOc1ccc(NC(=O)CSc2nnc(-c3ccc(C)cc3)c(-c3ccc(C)cc3)n2)cc1 2.07%
Cc1oc2ncn(CC(C)C)c(=O)c2c1C(=O)NCCCN(Cc1ccccc1)C(C)C -17.6%
O=C(NC1CC(=O)N(c2ccc(Cl)cc2)C1)c1ccc(S(=O)(=O)N2CCCC2)cc1 (configuration not stated) -17.8%
COc1ccc(CCNC(=O)C(=O)NCC(c2ccco2)S(=O)(=O)c2ccccc2)cc1OC (configuration not stated) -11.4%
COc1ccc(CCNC(=O)CS(=O)Cc2nc(-c3ccc(C)cc3)oc2C)c(OC)c1 (configuration not stated) -28%
O=C(Cn1c(=O)nc(-c2ccccc2)c2ccccc21)NCCCc1ccccc1 -12.8%
CCOc1ccccc1NS(=O)(=O)c1cnc(N)nc1 1.21%
Nc1ccc(S(=O)(=O)Nc2cnc3ccccc3n2)cc1 -4.95%
CCc1cccc(NCc2ccccc2-c2nnc(-c3ccccc3Cl)o2)c1 56.7%
CCn1c(CN2CCOCC2)nc2cc(NC(=O)c3cc(OC)c(OC)c(OC)c3)ccc21 -9.71%
CC(=O)c1ccc(NC(=O)C2CCC(CNS(=O)(=O)c3ccc4c(c3)CCCC(=O)N4)CC2)cc1 (configuration not stated) -4.34%
NCCCC(O)(P(=O)(O)O)P(=O)(O)O
COc1ccc(-c2cc(C(=O)NCc3ccccc3)c3c(-c4ccccc4)[nH]nc3n2)cc1 -14.1%
CC1CCN(C(=O)Cn2ncc3c4ccccc4n(Cc4ccc(Cl)cc4)c3c2=O)CC1 -12.2%
COc1ccccc1N1CCN(C(=O)Cc2c(C(=O)O)c(C)cn2C)CC1 -13.1%
CCCCSCCCNC(=O)C1CCC(CNS(=O)(=O)c2ccccc2)CC1 (configuration not stated) -28.7%
CCOc1ccc(CCNC(=O)c2ccc3nc(CC)c(CC)nc3c2)cc1 -19.3%
O=C(Nc1ccc(F)cc1F)c1ccc2c(=O)n3c(nc2c1)CCCCC3 15%
CCOc1ccc(OCC(=O)Nc2c(C(=O)Nc3ccc(C)cc3)oc3ccccc23)cc1 0.806%
COc1cccc(-n2c(=O)c3sc4ccccc4c3n(CC(=O)Nc3cccc(Cl)c3)c2=O)c1 -21.4%
O=C1C(CCS(=O)c2ccccc2)C(=O)N(c2ccccc2)N1c1ccccc1 (configuration not stated) 2.7%
O=c1[nH]c(=O)n([C@H]2C[C@@H](O)[C@@H](CO)O2)cc1C=CBr -1.74%
C=Cc1ccc(Cn2c(=O)n(-c3cccc(C)c3)c(=O)c3c2c2cc(C)ccc2n3C)cc1 -26.4%
